From patent US9163227B2, “Anti-diabetic compounds” (PFIZER INC., priority 2011, dated 2015)
“And” between values parts separate entries of the source, which are not always exact repeats. Equal entries are not always repeated. Where two headings read alike, the source gives them in different places. Marks after values point to notes of the source that are not given here.

Tests used:
[1] = target: Glut1 mRNA expression in differentiated 3T3-L1 adipocytes (Mus musculus, UniProt P16092+Q99N32); experiment: Glut1 Taqman assay; type: cell-based; settings: for EC50: 6 hrs
Glut1 mRNA expression in differentiated 3T3-L1 adipocytes, sequence (P16092 22-822): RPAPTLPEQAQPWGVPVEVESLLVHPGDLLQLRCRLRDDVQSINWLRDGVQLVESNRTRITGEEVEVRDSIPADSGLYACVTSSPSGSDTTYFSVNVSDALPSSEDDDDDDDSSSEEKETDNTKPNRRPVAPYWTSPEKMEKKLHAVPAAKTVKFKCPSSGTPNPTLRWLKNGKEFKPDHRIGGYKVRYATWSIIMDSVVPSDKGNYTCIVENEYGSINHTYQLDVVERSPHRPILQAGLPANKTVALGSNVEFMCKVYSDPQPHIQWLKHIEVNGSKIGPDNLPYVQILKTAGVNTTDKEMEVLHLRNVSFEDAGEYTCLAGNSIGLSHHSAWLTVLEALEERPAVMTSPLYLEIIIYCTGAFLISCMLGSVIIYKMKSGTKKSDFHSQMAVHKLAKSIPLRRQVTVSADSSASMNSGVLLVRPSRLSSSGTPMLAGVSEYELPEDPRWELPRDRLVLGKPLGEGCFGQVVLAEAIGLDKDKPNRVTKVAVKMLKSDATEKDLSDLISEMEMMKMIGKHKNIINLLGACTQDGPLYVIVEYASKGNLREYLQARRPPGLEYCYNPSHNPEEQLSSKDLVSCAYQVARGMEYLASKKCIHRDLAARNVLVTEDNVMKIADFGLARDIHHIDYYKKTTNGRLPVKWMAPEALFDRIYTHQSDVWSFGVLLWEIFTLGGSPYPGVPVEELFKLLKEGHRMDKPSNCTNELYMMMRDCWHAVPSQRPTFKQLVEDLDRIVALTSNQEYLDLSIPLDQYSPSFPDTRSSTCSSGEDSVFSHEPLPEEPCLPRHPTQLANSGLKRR
Glut1 mRNA expression in differentiated 3T3-L1 adipocytes, sequence (Q99N32 whole entry): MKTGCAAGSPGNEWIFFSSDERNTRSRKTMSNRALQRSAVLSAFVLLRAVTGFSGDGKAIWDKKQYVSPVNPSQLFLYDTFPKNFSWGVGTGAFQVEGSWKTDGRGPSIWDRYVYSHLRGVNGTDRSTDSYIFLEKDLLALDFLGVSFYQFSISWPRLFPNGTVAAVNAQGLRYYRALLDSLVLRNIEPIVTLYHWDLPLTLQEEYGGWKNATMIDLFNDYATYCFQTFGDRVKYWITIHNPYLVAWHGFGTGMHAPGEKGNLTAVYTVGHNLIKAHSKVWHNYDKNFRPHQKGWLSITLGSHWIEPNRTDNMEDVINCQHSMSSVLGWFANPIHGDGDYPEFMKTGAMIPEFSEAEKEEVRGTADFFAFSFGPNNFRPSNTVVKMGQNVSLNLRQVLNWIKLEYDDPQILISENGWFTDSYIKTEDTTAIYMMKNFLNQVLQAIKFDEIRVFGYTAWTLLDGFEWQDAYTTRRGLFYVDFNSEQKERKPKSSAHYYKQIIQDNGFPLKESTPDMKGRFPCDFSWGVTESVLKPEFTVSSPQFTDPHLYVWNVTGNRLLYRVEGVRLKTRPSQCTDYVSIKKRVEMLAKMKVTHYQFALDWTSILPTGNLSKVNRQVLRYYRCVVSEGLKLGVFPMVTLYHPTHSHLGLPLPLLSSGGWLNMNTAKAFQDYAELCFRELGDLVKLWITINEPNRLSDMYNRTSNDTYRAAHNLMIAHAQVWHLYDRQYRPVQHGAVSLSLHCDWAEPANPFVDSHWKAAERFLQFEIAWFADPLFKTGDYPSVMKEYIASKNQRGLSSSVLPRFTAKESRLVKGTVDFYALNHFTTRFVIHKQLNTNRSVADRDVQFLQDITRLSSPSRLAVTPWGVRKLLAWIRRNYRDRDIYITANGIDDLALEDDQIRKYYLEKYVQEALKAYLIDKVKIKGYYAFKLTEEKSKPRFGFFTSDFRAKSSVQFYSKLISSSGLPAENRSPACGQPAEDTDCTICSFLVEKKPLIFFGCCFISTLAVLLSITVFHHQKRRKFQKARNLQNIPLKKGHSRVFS
Description: Differentiated 3T3-L1 adipocytes were used to measure the Glut1 mRNA expression by qPCR method. Overnight serum starved day 10-14 differentiated 3T3-L1 adipocytes were treated with compounds for 6 hrs. Total RNA was extracted from these cells, and Glut1 and GAPDH mRNA expression was measured using a Quantitect Probe RT-PCR kit and running a quantitative real time PCR reaction in a Taqman machine (Applied Biosystems®). The bioactivity of the compounds was determined by a fold change in Glut1 mRNA levels normalized by the GAPDH mRNA levels from each sample. EC═values as measurements of the potency of the compounds were obtained from the dose response curves in the assay.
3T3-L1 adipocytes were seeded at day 8 in 24-well tissue culture plates (Falcon®, Cat#353047), and incubated in DMEM complete medium (10% FBS, 2 mM L-glutamine, 1% P/S) at 37° C., 5% CO2. […] The medium was aspirated, and then RNA extracted from the cells using the RNeasy mini Kit according to the manufacturer's instructions. RNA was measured at A260 nm using the Spectramax® Plus spectrophotometer.
In Glut1 Taqman assay, differentiated 3T3-L1 adipocytes were used to measure the Glut1 mRNA expression by real-time quantitative PCR (qPCR) method described below. Overnight serum starved day 10-14 differentiated 3T3-L1 adipocytes were treated with compounds for 6 hrs. Total RNA was extracted from these cells, and Glut1 and GAPDH mRNA expression was measured using a Quantitect Probe RT-PCR kit and running a real time quantitative PCR reaction in a Taqman machine. The bioactivity of the compounds was determined by a fold change in Glut1 mRNA levels normalized by the GAPDH mRNA levels from each sample. In cAMP assay, Chinese hamster ovary (CHO) cells over-expressing human GLP-1R(CHO-hGLP-1R) were seeded in 96-well plates in serum-free medium with 300 uM IBMX. Cells were incubated with compounds at RT for 1 hr. The cAMP levels were measured using a CisBio cAMP Kit according to manufacturer's instructions. The bioactivity of the compounds was determined by the EC50 values obtained from the assay (see Table 42).

[2] = Mouse pharmacokinetics of FGF21 antibody conjugates; type: in vivo, Swiss-Webster mice; settings: for IV half-life / SC bioavailability / SC half-life: mice
Description: The PK of FGF21 antibody conjugates were examined in mice after IV or SC administration. […] Antibody conjugates concentrations in serum were determined using an ELISA which captured the FGF21 portion of the antibody conjugates through a monoclonal anti-hFGF21 antibody bound to a 96-well plate. FGF21 antibody conjugates bound to the plate were detected through an anti-hFc monoclonal antibody, and concentrations were determined using a standard curve of the PK dosing solution diluted into serum-containing assay buffer. SC bioavailability was calculated as the ratio of the area-under the curve (AUC) of the SC serum concentration profile divided by the AUC of the IV serum concentration profile.

ob/ob mice = experiment: Oral glucose tolerance test in ob/ob mice (FGF21 conjugates); type: in vivo; settings: for mean glucose AUC % during OGTT: FIG. 6B; for Mean Glucose AUC (% of vehicle control) during OGTT: FIGS. 4A/4B
Description: (§1) The efficacy of FGF21 antibodies conjugates was evaluated in two murine obese insulin resistant models—ob/ob mice and high-fat diet-induced obese mice. For both models, male mice (6-8 weeks of age for ob/ob, 12-14 weeks of age for DIO with high-fat diet initiated at 6 weeks of age) were housed 2-4/cage and FGF21 antibody conjugates were administered by SC injection. Body weight was measured daily in the morning. Glucose tolerance was assessed by oral glucose tolerance test. Briefly, mice were fasted for 4-5 hrs in the morning of the day of testing. A basal blood sample was obtained and blood glucose levels were determined using a portable glucometer.

[3] = Body weight and liver weight in ob/ob mice; type: in vivo; settings: for Cumulative body weight change, mean body weight: FIG. 6A, single dose 10 mg/kg
Description: as §1

[4] = differentiated 3T3-L1 adipocytes, protein or antibody conjugate as labelled, read-out: Glut1 Taqman assay EC50
[5] = mouse, IV administration at 3 mg/kg (FIG. 3B)

B1: Ab-L1-FGF21ΔH-H125C: SEQ ID NO:7 combined with L1 at H125C and conjugated with h38C2 (conjugate)
light: ELQMTQSPSSLSASVGDRVTITCRSSQSLLHTYGSPYLNWYLQKPGQSPKLLIYKVSNRFSGVPSRFSGSGSGTDFTLTISSLQPEDFAVYFCSQGTHLPYTFGGGTKVEIKRTVAAPSVFIFPPSDEQLKSGTASVVCLLNNFYPREAKVQWKVDNALQSGNSQESVTEQDSKDSTYSLSSTLTLSKADYEKHKVYACEVTHQGLSSPVTKSFNRGEC
heavy: EVQLVESGGGLVQPGGSLRLSCAASGFTFSNYWMSWVRQSPEKGLEWVSEIRLRSDNYATHYAESVKGRFTISRDNSKNTLYLQMNSLRAEDTGIYYCKTYFYSFSYWGQGTLVTVSSASTKGPSVFPLAPSSKSTSGGTAALGCLVKDYFPEPVTVSWNSGALTSGVHTFPAVLQSSGLYSLSSVVTVPSSSLGTQTYICNVNHKPSNTKVDKRV[skipping human IgG1 Fc]
chain: PIPDSSPLLQFGGQVRQRYLYTDDAQQTEAHLEIREDGTVGGAADQSPESLLQLKALKPGVIQILGVKTSRFLCQRPDGALYGSLHFDPEACSFRELLLEDGYNVYQSEAHGLPLHLPGNKSPCRDPAPRGPARFLPLPGLPPALPEPPGILAPQPPDVGSSDPLSMVGPSQGRSPSYAS
EC50 [1, 4]: 3.2 nM
IV half-life [2]: 37 h
SC bioavailability [2]: 67%
SC half-life [2]: 32 h
glucose tolerance in ob/ob mice (in words) (ob/ob mice): improve glucose tolerance
mean glucose AUC % during OGTT (ob/ob mice; single dose 10 mg/ml (so in the source)): 51%
Mean Glucose AUC (% of vehicle control) during OGTT (ob/ob mice; single SC dose 1 mg/kg): 87 % of vehicle control
Mean Glucose AUC (% of vehicle control) during OGTT (ob/ob mice; single SC dose 3 mg/kg): 66 % of vehicle control
body weight gain in ob/ob mice (in words) [3]: reduce body weight gain
Cumulative body weight change, mean body weight [3]: 0.8 g

B2: Ab-L1-FGF21ΔH-D79C: SEQ ID NO:12 combined with L1 at D79C and conjugated with h38C2 (conjugate)
light: ELQMTQSPSSLSASVGDRVTITCRSSQSLLHTYGSPYLNWYLQKPGQSPKLLIYKVSNRFSGVPSRFSGSGSGTDFTLTISSLQPEDFAVYFCSQGTHLPYTFGGGTKVEIKRTVAAPSVFIFPPSDEQLKSGTASVVCLLNNFYPREAKVQWKVDNALQSGNSQESVTEQDSKDSTYSLSSTLTLSKADYEKHKVYACEVTHQGLSSPVTKSFNRGEC
heavy: EVQLVESGGGLVQPGGSLRLSCAASGFTFSNYWMSWVRQSPEKGLEWVSEIRLRSDNYATHYAESVKGRFTISRDNSKNTLYLQMNSLRAEDTGIYYCKTYFYSFSYWGQGTLVTVSSASTKGPSVFPLAPSSKSTSGGTAALGCLVKDYFPEPVTVSWNSGALTSGVHTFPAVLQSSGLYSLSSVVTVPSSSLGTQTYICNVNHKPSNTKVDKRV[skipping human IgG1 Fc]
chain: PIPDSSPLLQFGGQVRQRYLYTDDAQQTEAHLEIREDGTVGGAADQSPESLLQLKALKPGVIQILGVKTSRFLCQRPCGALYGSLHFDPEACSFRELLLEDGYNVYQSEAHGLPLHLPGNKSPHRDPAPRGPARFLPLPGLPPALPEPPGILAPQPPDVGSSDPLSMVGPSQGRSPSYAS
EC50 [1, 4]: 3.7 nM
SC half-life [2]: 20 h
IV half-life ([2]; listed as Ab-L1-FGF21ΔH-D790): 17 h and 19 h
SC bioavailability ([2]; listed as Ab-L1-FGF21ΔH-D790): 55% and 70%
IV AUC [2, 5]: 176 µg·h/mL
IV T½ [2, 5]: 19 h
glucose tolerance in ob/ob mice (in words) (ob/ob mice): improve glucose tolerance
mean glucose AUC % during OGTT (ob/ob mice; single dose 2 mg/kg): 86%
Mean Glucose AUC (% of vehicle control) (ob/ob mice; OGTT on day 6, SC 10 mg/kg on day 0 & 3): 53** % of vehicle control
Mean Glucose AUC (% of vehicle control) (ob/ob mice; OGTT on day 6, SC 10 mg/kg on day 3): 53** % of vehicle control
Mean Glucose AUC (% of vehicle control) (ob/ob mice; OGTT on day 6, SC 10 mg/kg on day 5): 87 % of vehicle control
Mean Glucose AUC (% of vehicle control) (ob/ob mice; OGTT on day 6, SC 10 mg/kg on day 6): 67** % of vehicle control
body weight gain in ob/ob mice (in words) [3]: reduce body weight gain
Cumulative body weight change, mean body weight [3]: 1.4 g

B3: Ab-L1-FGF21ΔH-A129C: h38C2 (SEQ ID NO:25 and 26), each arm linked through K99 to L1, each L1 conjugated to Cys129 of SEQ ID NO:10 (conjugate, listed as Homo sapiens)
heavy: ELQMTQSPSSLSASVGDRVTITCRSSQSLLHTYGSPYLNWYLQKPGQSPKLLIYKVSNRFSGVPSRFSGSGSGTDFTLTISSLQPEDFAVYFCSQGTHLPYTFGGGTKVEIKRTVAAPSVFIFPPSDEQLKSGTASVVCLLNNFYPREAKVQWKVDNALQSGNSQESVTEQDSKDSTYSLSSTLTLSKADYEKHKVYACEVTHQGLSSPVTKSFNRGEC
light: EVQLVESGGGLVQPGGSLRLSCAASGFTFSNYWMSWVRQSPEKGLEWVSEIRLRSDNYATHYAESVKGRFTISRDNSKNTLYLQMNSLRAEDTGIYYCKTYFYSFSYWGQGTLVTVSSASTKGPSVFPLCPSSKSTSGGTAALGCLVKDYFPEPVTVSWNSGALTSGVHTFPAVLQSSGLYSLSSVVTVPSSSLGTQTYICNVNHKPSNTKVDKRV[skipping human IgG1 Fc]
chain: PIPDSSPLLQFGGQVRQRYLYTDDAQQTEAHLEIREDGTVGGAADQSPESLLQLKALKPGVIQILGVKTSRFLCQRPDGALYGSLHFDPEACSFRELLLEDGYNVYQSEAHGLPLHLPGNKSPHRDPCPRGPARFLPLPGLPPALPEPPGILAPQPPDVGSSDPLSMVGPSQGRSPSYAS
modifications: L1 linker via K99 to Cys129
activity in Glut1 Taqman assay (in words) ([1]; 3T3-L1 adipocytes): dose-dependent Glut1 induction
EC50 ([1]; 3T3-L1 adipocytes, serum-free DMEM 0.2% BSA, Taqman quantitative real-time PCR, read-out: Glut1 RNA expression EC50): 1.72 nM
EC50 [1, 4]: 2.7 nM
